The values below come from PMC4336329 (PLoS ONE, 2015).

SMILES strings stand for the structures. Among all 310,000 compounds or so, about 2,200 (0.71%) showed an effect of 50% or more. The effect is printed as a negative number. The list shows a part of the results.

For the assay, the target named is human ether-à-go-go-related gene (hERG) potassium channel (human, UniProt Q12809). The assay can be described thus: primary screen, population patch clamp on CHO cells stably expressing hERG.
Sequence of human ether-à-go-go-related gene (hERG) potassium channel (Q12809 whole entry, looked up): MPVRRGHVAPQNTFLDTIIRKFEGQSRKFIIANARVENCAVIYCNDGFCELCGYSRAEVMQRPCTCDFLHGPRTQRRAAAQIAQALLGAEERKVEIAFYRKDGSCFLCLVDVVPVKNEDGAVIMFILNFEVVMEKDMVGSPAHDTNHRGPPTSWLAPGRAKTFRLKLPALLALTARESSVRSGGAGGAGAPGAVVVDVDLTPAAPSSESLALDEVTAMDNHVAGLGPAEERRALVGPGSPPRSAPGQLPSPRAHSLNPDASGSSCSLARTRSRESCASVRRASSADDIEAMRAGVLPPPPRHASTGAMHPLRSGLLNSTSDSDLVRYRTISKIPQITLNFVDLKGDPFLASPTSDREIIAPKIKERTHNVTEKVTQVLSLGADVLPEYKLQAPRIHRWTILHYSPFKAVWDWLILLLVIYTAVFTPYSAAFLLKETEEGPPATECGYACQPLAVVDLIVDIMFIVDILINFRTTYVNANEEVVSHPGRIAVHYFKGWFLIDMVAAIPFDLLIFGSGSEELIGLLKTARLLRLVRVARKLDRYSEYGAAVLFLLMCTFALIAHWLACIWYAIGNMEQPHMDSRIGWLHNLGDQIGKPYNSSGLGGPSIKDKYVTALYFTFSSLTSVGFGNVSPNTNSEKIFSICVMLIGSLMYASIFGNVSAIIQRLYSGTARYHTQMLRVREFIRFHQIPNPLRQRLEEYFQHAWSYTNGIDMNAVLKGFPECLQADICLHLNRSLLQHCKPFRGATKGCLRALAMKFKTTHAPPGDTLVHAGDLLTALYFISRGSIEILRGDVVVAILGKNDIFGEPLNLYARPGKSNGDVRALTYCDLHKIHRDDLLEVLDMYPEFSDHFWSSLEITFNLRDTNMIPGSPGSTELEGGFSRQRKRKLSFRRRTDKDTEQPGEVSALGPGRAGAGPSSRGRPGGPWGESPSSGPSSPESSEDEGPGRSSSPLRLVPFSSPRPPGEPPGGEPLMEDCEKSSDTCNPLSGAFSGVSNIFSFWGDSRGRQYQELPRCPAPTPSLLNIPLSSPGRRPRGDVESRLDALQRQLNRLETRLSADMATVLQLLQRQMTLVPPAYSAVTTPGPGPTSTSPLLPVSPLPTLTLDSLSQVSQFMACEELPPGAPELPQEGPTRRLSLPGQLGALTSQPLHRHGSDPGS
As for `O=C(CS(=O)(=O)c1cn(Cc2ccc(F)cc2)c2ccccc12)N1CCCCC1`, the “hERG current change (%, negative = inhibition) at 1uM” value came out at 3.03%.
Under `Cc1ccccc1NC(=O)CSc1nnc(Cc2ccccc2)o1` stands 4.4%.
Under `O=S(=O)(c1cccc2nsnc12)N1CCN(c2ccccc2F)CC1` stands 11%; under `CNCc1ccccc1Sc1ccc(OC)cc1.Cl`, -7.21%; under `CCN(CC)CCOC(=O)c1ccc(NC(=O)CCCN2C(=O)S/C(=C/c3ccc(OC)cc3)C2=S)cc1`, 16%.
Next, `CSc1nnc2c(n1)OC=Nc1ccc(Br)cc1-2`: -5.82%.
For the molecule `Cc1cc(C(=O)NNC(=S)NC(C)c2ccccc2)c2ccccc2n1` (stereo not shown), the “hERG current change (%, negative = inhibition) at 1uM” value amounted to 12.8%.
Under `COc1ccc(CCNC(=O)COc2ccc(S(=O)(=O)NCC(C)C)cc2Cl)cc1OC` stands 4.07%.
For the molecule `COc1ccccc1-n1nnnc1SCC(=O)Nc1ccccn1`, the “hERG current change (%, negative = inhibition) at 1uM” value amounted to 11.6%.
Next, `Cc1ccc(C)c(OCCC(=O)OCC(=O)N(C)c2c(N)n(Cc3ccccc3)c(=O)[nH]c2=O)c1`: 1.98%.
With `O=C(Nc1ccc(OC(F)F)c(Cl)c1)C(c1ccccc1)c1ccccc1`, the “hERG current change (%, negative = inhibition) at 1uM” value is reported as 0.293%.
Under `O=C(Nc1ccc(S(=O)(=O)N2CCCCC2c2cccnc2)cc1)c1ccccc1F` (stereo not shown) stands 7.3%; under `CC(OC(=O)C1CCCCC1)C(=O)Nc1cccc(Cl)c1` (stereo not shown), -12%; under `O=C(NCC1CC1)c1ccc(Oc2cc(Cl)cc(Cl)c2)o1`, 8.8%.
As to `COc1ccc(NC(=O)Nc2c(C)n(-c3ccccc3)c(=O)n2C)cc1OC`, the “hERG current change (%, negative = inhibition) at 1uM” value is reported as 3.89%.
Under `Cc1nn(-c2ccccc2)c2[nH]c(=O)c(CNc3ccc4c(c3)OCCO4)cc12` stands 7.53%; under `O=C(CN1C(=O)COc2ccccc21)N(Cc1cccnc1)Cc1ccccc1F`, -18.7%; under `Cc1c(C(=O)N2CCCC2)c(S(=O)(=O)NCC(C)c2ccccc2)c(C)n1C` (stereo not shown), 7.13%.
Next, `CCOP(=O)(OCC)C(Nc1cccc([N+](=O)[O-])c1)c1ccc(N(C)C)cc1` (stereo not shown): 9.47%; `COc1ccc(CCNC(=O)Cn2c(=O)oc3ccccc32)cc1OC`: 3.42%.
Under `C=CCn1cnc2c(NCc3ccccc3)ncnc21` stands 13%.
Consider `CC(C)N1C(=O)C2C(C(=O)NCc3ccccc3)C3C=CC2(O3)C1C(=O)NC(C)(C)C` (stereo not shown), for which the “hERG current change (%, negative = inhibition) at 1uM” value was 9.95%.
Next, `O=C1COc2cccnc2N1`: 6.15%; `Cc1cc2c(cc1S(=O)(=O)NCc1ccc(Cl)cc1)OCC(=O)N2`: -25%.
Next, `COC(=O)c1ccc(C)c(N(CCO)CCO)c1`: -8.11%.
As to `COc1ccc(/C(C)=N\Nc2nc(-c3ccccc3)cc(=O)[nH]2)cc1`, the “hERG current change (%, negative = inhibition) at 1uM” value was determined as 11.7%.
Next, `COc1ccc(OC(=O)Nc2ccc([N+](=O)[O-])cc2OC)cc1`: 15%; `Cc1nc2ccccc2c(=O)n1-c1ccc(Br)cc1[N+](=O)[O-]`: 3.13%.
Next, `COc1ccc(C(=O)Cc2cc(OC)c(OC)cc2[N+](=O)[O-])c(OC)c1`: 11.4%; `Cc1ccccc1OCCNC(=O)/C=C/c1ccccc1`: 1.43%.
Under `Cc1ccc(NC(=O)C(C)N2CCc3ccccc3C2)cc1` (stereo not shown) stands 8.24%; under `COc1ccc(C2c3[nH]c4ccccc4c3CCN2C(=O)c2ccccc2C(C)=O)c(F)c1` (stereo not shown), 12.8%.
`CC(C)(C)c1ccc(N2C(=N)SCC2=O)cc1`: the “hERG current change (%, negative = inhibition) at 1uM” value worked out at 8.31%.
Turning to `O=C1CC2(CCCCCC2)Oc2ccccc21`, the “hERG current change (%, negative = inhibition) at 1uM” value turned out to be 0.318%.
Next, `O=c1c2ccccc2nc(-c2ccc(-c3ccccc3)cc2)n1-c1ccncc1`: -20.6%; `CCN(CC)CCN1C(=O)C2C(C(=O)Nc3cccc(SC)c3)C3C=CC2(O3)C1C(=O)NC1CCCC(C)C1C` (stereo not shown): -3.79%.
Next, `CC(=O)Nc1ccc(S(=O)(=O)N2c3ccc(F)cc3CCC2C)cc1` (stereo not shown): -2.99%.
Next, `CCOc1ccc(/C(O)=C/C(=O)C(=O)Nc2ccc(S(=O)(=O)NC(C)=O)cc2)cc1`: 15.2%.
As to `Cc1ccc(C(=O)OCC(=O)Nc2ccccc2Sc2ccccc2)cc1C`, the “hERG current change (%, negative = inhibition) at 1uM” value is on record as 4.69%.
Under `Cc1ccc(C2CC(c3ccco3)n3nc(N)nc3N2)cc1` (stereo not shown) stands 0.0243%; under `CN1C(=O)C(=O)/C(=C(/O)c2ccc(Br)cc2)C1c1ccccc1F` (stereo not shown), 4.83%; under `C(#CCN1CCOCC1)COC(c1ccccc1)c1ccccc1.Cl`, 18.4%.
Next, `CCOc1ncccc1C(=O)OCC(=O)c1cc(OC)ccc1OC`: 3.18%.
